# Data published in the supplement of paper PMC8728848.
# This is one part of the list.
# Tests used:
# Experiment in all cases: glycan array binding signal (z-score within array); higher = stronger binding
# Settings in all cases: glycan notation: IUPAC condensed, linker removed
# [1] = target: Neu5Ac(a2-3)Gal(b1-4)GlcNAc(b1-6)GalNAc
# Method in brief: (§1)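 The binding signal is a Z-score computed within each array. Data were drawn from 3228 arrays in the Consortium for Functional Glycomics database, restricted to those with a known protein sequence. Scores were averaged over arrays of the same protein sequence at different concentrations or buffers, and over linkers, and negative values can be taken as non-binding.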
# [2] = target: Neu5Ac(a2-3)Gal(b1-4)GlcNAc(b1-6)[Gal(b1-3)]GalNAc
# Method in brief: as §1
# [3] = target: Neu5Ac(a2-3)Gal(b1-4)GlcNAc(b1-6)[Neu5Ac(a2-3)Gal(b1-3)]GalNAc
# Method in brief: as §1
# [4] = target: Neu5Ac(a2-3)Gal(b1-4)GlcNAc6S
# Method in brief: as §1
# [5] = target: Neu5Ac(a2-3)Gal(b1-4)[Fuc(a1-3)]GlcNAc
# Method in brief: as §1
# [6] = target: Neu5Ac(a2-3)Gal(b1-4)[Fuc(a1-3)]GlcNAc(b1-2)Man
# Method in brief: as §1
# [7] = target: Neu5Ac(a2-3)Gal(b1-4)[Fuc(a1-3)]GlcNAc(b1-3)Gal
# Method in brief: as §1
# [8] = target: Neu5Ac(a2-3)Gal(b1-4)[Fuc(a1-3)]GlcNAc(b1-3)Gal(b1-4)GlcNAc
# Method in brief: as §1
# [9] = target: Neu5Ac(a2-3)Gal(b1-4)[Fuc(a1-3)]GlcNAc(b1-3)Gal(b1-4)[Fuc(a1-3)]GlcNAc(b1-3)Gal(b1-4)[Fuc(a1-3)]GlcNAc
# Method in brief: as §1
# [10] = target: Neu5Ac(a2-3)Gal(b1-4)[Fuc(a1-3)]GlcNAc(b1-3)GalNAc
# Method in brief: as §1
# [11] = target: Neu5Ac(a2-3)Gal(b1-4)[Fuc(a1-3)]GlcNAc(b1-6)[Gal(b1-3)]GalNAc
# Method in brief: as §1
# [12] = target: Neu5Ac(a2-3)Gal(b1-4)[Fuc(a1-3)]GlcNAc(b1-6)[Neu5Ac(a2-3)Gal(b1-3)]GalNAc
# Method in brief: as §1
# [13] = target: Neu5Ac(a2-3)Gal(b1-4)[Fuc(a1-3)]GlcNAc6S
# Method in brief: as §1
# [14] = target: Neu5Ac(a2-3)Gal6S(b1-4)GlcNAc
# Method in brief: as §1
# [15] = target: Neu5Ac(a2-3)Gal6S(b1-4)[Fuc(a1-3)]GlcNAc
# Method in brief: as §1
# [16] = target: Neu5Ac(a2-3)GalNAc
# Method in brief: as §1
# [17] = target: Neu5Ac(a2-3)GalNAc(b1-4)GlcNAc
# Method in brief: as §1
# [18] = target: Neu5Ac(a2-3)[GalNAc(b1-4)]Gal(b1-4)Glc
# Method in brief: as §1
# [19] = target: Neu5Ac(a2-3)[GalNAc(b1-4)]Gal(b1-4)GlcNAc
# Method in brief: as §1
# [20] = target: Neu5Ac(a2-3)[GalNAc(b1-4)]Gal(b1-4)GlcNAc(b1-3)GalNAc
# Method in brief: as §1
# [21] = target: Neu5Ac(a2-3)[Neu5Ac(a2-6)]GalNAc
# Method in brief: as §1
# [22] = target: Neu5Ac(a2-6)Gal
# Method in brief: as §1
# [23] = target: Neu5Ac(a2-6)Gal(b1-3)GlcNAc(b1-3)[Gal(b1-4)GlcNAc(b1-6)]Gal(b1-4)Glc
# Method in brief: as §1
# [24] = target: Neu5Ac(a2-6)Gal(b1-4)Glc
# Method in brief: as §1
# [25] = target: Neu5Ac(a2-6)Gal(b1-4)GlcNAc
# Method in brief: as §1
# [26] = target: Neu5Ac(a2-6)Gal(b1-4)GlcNAc(b1-2)Man
# Method in brief: as §1
# [27] = target: Neu5Ac(a2-6)Gal(b1-4)GlcNAc(b1-2)Man(a1-3)Man(b1-4)GlcNAc(b1-4)GlcNAc
# Method in brief: as §1
# [28] = target: Neu5Ac(a2-6)Gal(b1-4)GlcNAc(b1-2)Man(a1-3)[Gal(b1-4)GlcNAc(b1-2)Man(a1-6)]Man(b1-4)GlcNAc(b1-4)GlcNAc
# Method in brief: as §1
# [29] = target: Neu5Ac(a2-6)Gal(b1-4)GlcNAc(b1-2)Man(a1-3)[GlcNAc(b1-2)Man(a1-6)]Man(b1-4)GlcNAc(b1-4)GlcNAc
# Method in brief: as §1
# [30] = target: Neu5Ac(a2-6)Gal(b1-4)GlcNAc(b1-2)Man(a1-3)[GlcNAc(b1-4)][Neu5Ac(a2-6)Gal(b1-4)GlcNAc(b1-2)Man(a1-6)]Man(b1-4)GlcNAc(b1-4)GlcNAc
# Method in brief: as §1
# [31] = target: Neu5Ac(a2-6)Gal(b1-4)GlcNAc(b1-2)Man(a1-3)[Man(a1-6)]Man(b1-4)GlcNAc(b1-4)GlcNAc
# Method in brief: as §1
# [32] = target: Neu5Ac(a2-6)Gal(b1-4)GlcNAc(b1-2)Man(a1-3)[Neu5Ac(a2-3)Gal(b1-4)GlcNAc(b1-2)Man(a1-6)]Man(b1-4)GlcNAc(b1-4)GlcNAc
# Method in brief: as §1
# [33] = target: Neu5Ac(a2-6)Gal(b1-4)GlcNAc(b1-2)Man(a1-3)[Neu5Ac(a2-6)Gal(b1-4)GlcNAc(b1-2)Man(a1-6)]Man(b1-4)GlcNAc(b1-4)GlcNAc
# Method in brief: as §1
# [34] = target: Neu5Ac(a2-6)Gal(b1-4)GlcNAc(b1-2)Man(a1-3)[Neu5Ac(a2-6)Gal(b1-4)GlcNAc(b1-2)Man(a1-6)]Man(b1-4)GlcNAc(b1-4)[Fuc(a1-6)]GlcNAc
# Method in brief: as §1
# [35] = target: Neu5Ac(a2-6)Gal(b1-4)GlcNAc(b1-2)Man(a1-6)Man(b1-4)GlcNAc(b1-4)GlcNAc
# Method in brief: as §1
# [36] = target: Neu5Ac(a2-6)Gal(b1-4)GlcNAc(b1-2)Man(a1-6)[Gal(b1-4)GlcNAc(b1-2)Man(a1-3)]Man(b1-4)GlcNAc(b1-4)GlcNAc
# Method in brief: as §1
# [37] = target: Neu5Ac(a2-6)Gal(b1-4)GlcNAc(b1-2)Man(a1-6)[GlcNAc(b1-2)Man(a1-3)]Man(b1-4)GlcNAc(b1-4)GlcNAc
# Method in brief: as §1
# [38] = target: Neu5Ac(a2-6)Gal(b1-4)GlcNAc(b1-2)Man(a1-6)[Man(a1-3)]Man(b1-4)GlcNAc(b1-4)GlcNAc
# Method in brief: as §1
# [39] = target: Neu5Ac(a2-6)Gal(b1-4)GlcNAc(b1-2)[Neu5Ac(a2-6)Gal(b1-4)GlcNAc(b1-4)]Man(a1-3)[GlcNAc(b1-4)][Neu5Ac(a2-6)Gal(b1-4)GlcNAc(b1-2)[Neu5Ac(a2-6)Gal(b1-4)GlcNAc(b1-6)]Man(a1-6)]Man(b1-4)GlcNAc(b1-4)GlcNAc
# Method in brief: as §1
# [40] = target: Neu5Ac(a2-6)Gal(b1-4)GlcNAc(b1-2)[Neu5Ac(a2-6)Gal(b1-4)GlcNAc(b1-4)]Man(a1-3)[GlcNAc(b1-4)][Neu5Ac(a2-6)Gal(b1-4)GlcNAc(b1-4)Man(a1-6)]Man(b1-4)GlcNAc(b1-4)GlcNAc
# Method in brief: as §1
# [41] = target: Neu5Ac(a2-6)Gal(b1-4)GlcNAc(b1-2)[Neu5Ac(a2-6)Gal(b1-4)GlcNAc(b1-6)]Man(a1-6)[Neu5Ac(a2-6)Gal(b1-4)GlcNAc(b1-2)Man(a1-3)][GlcNAc(b1-4)]Man(b1-4)GlcNAc(b1-4)GlcNAc
# Method in brief: as §1
# [42] = target: Neu5Ac(a2-6)Gal(b1-4)GlcNAc(b1-3)Gal(b1-3)GlcNAc
# Method in brief: as §1
# [43] = target: Neu5Ac(a2-6)Gal(b1-4)GlcNAc(b1-3)Gal(b1-4)GlcNAc
# Method in brief: as §1
# [44] = target: Neu5Ac(a2-6)Gal(b1-4)GlcNAc(b1-3)Gal(b1-4)GlcNAc(b1-2)Man(a1-3)[Neu5Ac(a2-6)Gal(b1-4)GlcNAc(b1-3)Gal(b1-4)GlcNAc(b1-2)Man(a1-6)]GalNAc
# Method in brief: as §1
# [45] = target: Neu5Ac(a2-6)Gal(b1-4)GlcNAc(b1-3)Gal(b1-4)GlcNAc(b1-3)Gal(b1-4)GlcNAc
# Method in brief: as §1
# [46] = target: Neu5Ac(a2-6)Gal(b1-4)GlcNAc(b1-3)Gal(b1-4)GlcNAc(b1-3)Gal(b1-4)GlcNAc(b1-2)Man(a1-3)[Neu5Ac(a2-6)Gal(b1-4)GlcNAc(b1-3)Gal(b1-4)GlcNAc(b1-3)Gal(b1-4)GlcNAc(b1-2)Man(a1-6)]GalNAc
# Method in brief: as §1
binder,measurement,setting,value
PX9896A-bth-573-26-573 (Bacteroides thetaiotaomicron) (protein) ETNNLKTKEDMYKYFGTSKSMLTHVYSYMPQGYQLFATSGGIFTEDRYSMRDCASDDGEFGAYADNIQNTNNGNWSPIKTYDDSWTLYRGIRAANSFIAEIAQVDFTRYEHDGQYTNWMKQLKYFPYEARVLRAHYFFELARRYGDIAMPLEVLTEEEANTIGKTPFSEVISFIVSECDDAANNLPDSYVNEPGAEIGRVTKGFAMAVKSKALLYAASKLHNPSMDTELWKKSAKAAIDIINTGLYSLDPQESANNLDSKEVVLMRINGDDSDFEMFNLPLRMTAGTRTSSLIPYSNYPSQNLVDAFETVNGYKVTLENTGWVCEDPAFDPQSPYENRDKRFYRAILANGMSFKDYTIETFKGGADDGIVSQGGSPTGYFLRKYIQEATSFEPGKEAVSKHHWVIYRYAETLLTYAESMVNAFNDVNYTDETYKYSALWAINEVRKNADMPLIPSMGKDEFMERLYNEWRVEFAFEDHRFWDVRRWKIADTTQRELYGVKIEKQADGTFNFYKNLYETRNWRDCMYLYPIPQSELYKNTNLNPQNTGW,glycan array binding signal (z-score),[1],0.154
same,glycan array binding signal (z-score),[2],-0.254
same,glycan array binding signal (z-score),[3],0.197
same,glycan array binding signal (z-score),[4],0.689
same,glycan array binding signal (z-score),[5],-0.523
same,glycan array binding signal (z-score),[6],-0.204
same,glycan array binding signal (z-score),[7],-0.039
same,glycan array binding signal (z-score),[8],0.271
same,glycan array binding signal (z-score),[9],-0.176
same,glycan array binding signal (z-score),[10],4.79
same,glycan array binding signal (z-score),[11],0.074
same,glycan array binding signal (z-score),[12],-0.68
same,glycan array binding signal (z-score),[13],-0.425
same,glycan array binding signal (z-score),[14],-0.53
same,glycan array binding signal (z-score),[15],-0.756
same,glycan array binding signal (z-score),[16],-0.229
same,glycan array binding signal (z-score),[17],-0.491
same,glycan array binding signal (z-score),[18],-0.608
same,glycan array binding signal (z-score),[19],-0.529
same,glycan array binding signal (z-score),[20],-0.496
same,glycan array binding signal (z-score),[21],-0.228
same,glycan array binding signal (z-score),[22],-0.476
same,glycan array binding signal (z-score),[23],-0.325
same,glycan array binding signal (z-score),[24],-0.396
same,glycan array binding signal (z-score),[25],-0.425
same,glycan array binding signal (z-score),[26],-0.386
same,glycan array binding signal (z-score),[27],-0.091
same,glycan array binding signal (z-score),[28],-0.161
same,glycan array binding signal (z-score),[29],-0.072
same,glycan array binding signal (z-score),[30],-0.292
same,glycan array binding signal (z-score),[31],-0.944
same,glycan array binding signal (z-score),[32],-0.541
same,glycan array binding signal (z-score),[33],-0.137
same,glycan array binding signal (z-score),[34],-0.116
same,glycan array binding signal (z-score),[35],-0.365
same,glycan array binding signal (z-score),[36],0.191
same,glycan array binding signal (z-score),[37],-0.598
same,glycan array binding signal (z-score),[38],-0.33
same,glycan array binding signal (z-score),[39],-0.093
same,glycan array binding signal (z-score),[40],-0.234
same,glycan array binding signal (z-score),[41],-0.82
same,glycan array binding signal (z-score),[42],0.012
same,glycan array binding signal (z-score),[43],-0.431
same,glycan array binding signal (z-score),[44],0.147
same,glycan array binding signal (z-score),[45],-0.213
same,glycan array binding signal (z-score),[46],1.34
